From paper PMC5636748
No constants are given. Whether binding was seen depends on the method and setting. Binding seen in cells or lysates may run through a third protein. Some entries that bind do so weakly or less than the wild type.

Sequences of proteins named here, by UniProt entry; tags and fusion partners are left off.
UniProt Q8NDV7: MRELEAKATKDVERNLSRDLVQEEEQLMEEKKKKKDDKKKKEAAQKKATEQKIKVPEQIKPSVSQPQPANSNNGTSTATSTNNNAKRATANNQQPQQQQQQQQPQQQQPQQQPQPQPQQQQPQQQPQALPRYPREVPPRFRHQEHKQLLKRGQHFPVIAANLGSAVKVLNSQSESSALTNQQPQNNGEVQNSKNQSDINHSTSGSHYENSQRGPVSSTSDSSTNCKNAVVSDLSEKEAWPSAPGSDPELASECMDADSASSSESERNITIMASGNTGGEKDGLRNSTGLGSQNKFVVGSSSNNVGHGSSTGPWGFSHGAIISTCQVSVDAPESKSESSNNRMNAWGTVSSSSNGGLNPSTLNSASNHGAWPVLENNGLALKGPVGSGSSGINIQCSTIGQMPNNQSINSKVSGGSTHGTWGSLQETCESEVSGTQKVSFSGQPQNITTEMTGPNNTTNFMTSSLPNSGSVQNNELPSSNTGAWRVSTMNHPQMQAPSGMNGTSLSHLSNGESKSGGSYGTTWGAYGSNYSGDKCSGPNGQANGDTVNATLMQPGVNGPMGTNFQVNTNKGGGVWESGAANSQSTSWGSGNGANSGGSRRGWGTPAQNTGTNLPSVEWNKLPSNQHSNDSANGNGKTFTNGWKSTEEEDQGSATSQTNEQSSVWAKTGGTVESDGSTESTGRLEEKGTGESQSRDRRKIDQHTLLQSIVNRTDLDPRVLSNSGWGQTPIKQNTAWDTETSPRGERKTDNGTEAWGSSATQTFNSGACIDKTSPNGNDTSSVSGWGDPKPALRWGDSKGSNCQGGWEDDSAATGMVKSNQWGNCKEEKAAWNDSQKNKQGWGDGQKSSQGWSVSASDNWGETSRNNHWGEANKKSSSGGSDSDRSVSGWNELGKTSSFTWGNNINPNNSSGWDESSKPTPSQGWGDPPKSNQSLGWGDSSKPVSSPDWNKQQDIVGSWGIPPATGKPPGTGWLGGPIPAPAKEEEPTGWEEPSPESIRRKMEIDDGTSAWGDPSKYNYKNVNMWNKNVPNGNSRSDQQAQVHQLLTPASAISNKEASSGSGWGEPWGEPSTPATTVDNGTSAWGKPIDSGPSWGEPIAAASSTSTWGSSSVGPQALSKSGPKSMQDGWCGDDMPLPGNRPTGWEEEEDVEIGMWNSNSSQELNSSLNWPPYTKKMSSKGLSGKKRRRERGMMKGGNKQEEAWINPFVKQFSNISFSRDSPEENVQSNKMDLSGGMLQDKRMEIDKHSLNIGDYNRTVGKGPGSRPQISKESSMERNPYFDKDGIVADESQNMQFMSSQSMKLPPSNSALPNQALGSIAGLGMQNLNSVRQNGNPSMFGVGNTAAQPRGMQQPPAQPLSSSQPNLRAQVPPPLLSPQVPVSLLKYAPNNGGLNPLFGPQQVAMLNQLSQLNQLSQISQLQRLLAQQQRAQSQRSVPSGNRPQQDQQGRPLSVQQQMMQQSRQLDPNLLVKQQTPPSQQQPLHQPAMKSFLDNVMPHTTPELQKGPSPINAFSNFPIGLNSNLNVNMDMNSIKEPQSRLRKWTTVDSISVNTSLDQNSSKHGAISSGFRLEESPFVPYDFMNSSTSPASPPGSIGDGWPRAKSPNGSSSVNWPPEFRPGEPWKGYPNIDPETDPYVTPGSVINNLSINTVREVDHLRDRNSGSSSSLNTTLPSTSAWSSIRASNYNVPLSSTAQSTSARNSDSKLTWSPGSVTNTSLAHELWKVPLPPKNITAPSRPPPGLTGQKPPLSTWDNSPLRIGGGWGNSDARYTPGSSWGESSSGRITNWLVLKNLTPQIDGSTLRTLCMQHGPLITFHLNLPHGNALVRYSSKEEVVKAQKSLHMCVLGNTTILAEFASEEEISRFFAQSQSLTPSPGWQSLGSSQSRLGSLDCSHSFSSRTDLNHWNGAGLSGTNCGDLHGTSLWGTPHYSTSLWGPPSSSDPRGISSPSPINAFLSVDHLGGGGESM
UniProt Q9UPQ9: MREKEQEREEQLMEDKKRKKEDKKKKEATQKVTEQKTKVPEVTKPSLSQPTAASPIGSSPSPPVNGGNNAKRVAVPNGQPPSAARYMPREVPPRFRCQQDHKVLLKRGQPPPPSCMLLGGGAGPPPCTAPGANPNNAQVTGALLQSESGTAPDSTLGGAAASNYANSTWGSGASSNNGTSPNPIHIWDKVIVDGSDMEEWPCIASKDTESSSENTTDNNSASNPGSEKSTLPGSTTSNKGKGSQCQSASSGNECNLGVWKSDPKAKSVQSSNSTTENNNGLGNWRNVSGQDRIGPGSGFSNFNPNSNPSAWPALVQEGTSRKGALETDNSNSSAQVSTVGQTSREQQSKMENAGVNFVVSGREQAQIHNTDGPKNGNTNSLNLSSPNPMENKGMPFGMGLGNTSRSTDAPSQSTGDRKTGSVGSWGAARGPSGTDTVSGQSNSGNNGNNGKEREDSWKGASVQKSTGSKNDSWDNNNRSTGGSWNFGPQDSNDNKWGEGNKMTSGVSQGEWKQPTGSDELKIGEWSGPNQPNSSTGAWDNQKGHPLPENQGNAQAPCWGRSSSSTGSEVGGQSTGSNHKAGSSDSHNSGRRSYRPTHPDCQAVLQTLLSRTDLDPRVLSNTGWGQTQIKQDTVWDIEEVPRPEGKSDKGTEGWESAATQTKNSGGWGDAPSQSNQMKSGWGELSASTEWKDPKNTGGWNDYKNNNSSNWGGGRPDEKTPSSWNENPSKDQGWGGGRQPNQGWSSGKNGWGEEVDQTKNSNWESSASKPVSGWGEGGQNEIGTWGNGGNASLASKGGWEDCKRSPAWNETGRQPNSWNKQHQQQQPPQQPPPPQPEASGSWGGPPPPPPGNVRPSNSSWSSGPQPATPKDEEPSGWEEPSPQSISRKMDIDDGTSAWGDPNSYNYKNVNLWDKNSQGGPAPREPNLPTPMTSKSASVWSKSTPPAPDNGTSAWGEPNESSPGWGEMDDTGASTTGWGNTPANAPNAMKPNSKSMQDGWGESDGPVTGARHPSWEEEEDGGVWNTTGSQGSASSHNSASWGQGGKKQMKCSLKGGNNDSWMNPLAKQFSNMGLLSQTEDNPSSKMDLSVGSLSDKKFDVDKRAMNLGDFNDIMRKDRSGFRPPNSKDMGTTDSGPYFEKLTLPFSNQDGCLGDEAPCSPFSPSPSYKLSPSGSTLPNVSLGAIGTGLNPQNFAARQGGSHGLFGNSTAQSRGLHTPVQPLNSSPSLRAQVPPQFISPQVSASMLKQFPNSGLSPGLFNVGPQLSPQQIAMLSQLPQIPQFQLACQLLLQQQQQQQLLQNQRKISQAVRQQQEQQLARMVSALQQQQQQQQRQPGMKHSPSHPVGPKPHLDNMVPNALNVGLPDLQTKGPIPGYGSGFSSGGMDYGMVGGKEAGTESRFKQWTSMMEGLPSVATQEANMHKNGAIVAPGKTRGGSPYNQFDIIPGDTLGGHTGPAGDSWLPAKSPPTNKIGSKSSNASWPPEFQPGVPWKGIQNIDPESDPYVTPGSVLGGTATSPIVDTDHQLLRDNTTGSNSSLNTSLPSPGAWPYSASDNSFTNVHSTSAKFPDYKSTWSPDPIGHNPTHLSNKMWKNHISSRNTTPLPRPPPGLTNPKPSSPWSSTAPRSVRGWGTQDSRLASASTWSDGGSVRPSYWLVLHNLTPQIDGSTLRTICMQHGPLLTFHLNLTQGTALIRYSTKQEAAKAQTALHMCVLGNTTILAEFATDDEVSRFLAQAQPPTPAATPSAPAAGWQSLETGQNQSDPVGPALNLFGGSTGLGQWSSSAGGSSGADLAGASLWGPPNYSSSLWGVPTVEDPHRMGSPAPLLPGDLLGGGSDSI
UniProt O60573: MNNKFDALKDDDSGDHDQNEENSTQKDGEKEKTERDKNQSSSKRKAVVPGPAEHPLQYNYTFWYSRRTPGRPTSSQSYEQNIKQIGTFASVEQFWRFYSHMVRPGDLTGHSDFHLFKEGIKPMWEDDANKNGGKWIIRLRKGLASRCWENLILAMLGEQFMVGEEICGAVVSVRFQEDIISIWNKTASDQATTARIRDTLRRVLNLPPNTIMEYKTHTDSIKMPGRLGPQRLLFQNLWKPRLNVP
UniProt P06730: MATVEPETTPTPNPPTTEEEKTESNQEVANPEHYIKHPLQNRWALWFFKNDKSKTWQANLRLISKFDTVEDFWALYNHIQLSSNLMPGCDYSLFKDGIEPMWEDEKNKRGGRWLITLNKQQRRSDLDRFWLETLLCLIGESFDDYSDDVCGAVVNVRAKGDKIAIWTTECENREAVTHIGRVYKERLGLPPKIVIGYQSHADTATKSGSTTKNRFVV

Legend:
[1] = molecular target: endogenous TNRC6A (human (endogenous in HEK293T)) (UniProt Q8NDV7); assay: co-IP; endogenous TNRC6A of HEK293T immunoprecipitated with the anti-TNRC6A antibody (control IgG beside it) from lysates of cells transfected with Flag-tagged eIF4E1 or eIF4E2, in the presence of RNase A; Western blotting
TNRC6B (human) = TNRC6B (human) (UniProt Q9UPQ9); assay: co-IP; both proteins expressed from plasmids in HEK293T, lysed 48 h after transfection in Co-IP buffer (30 mmol/L Hepes pH 7.5, 100 mmol/L NaCl, 0.5% NP40) with RNase A; TNRC6 protein or Flag-tagged TNRC6A truncation mutant immunoprecipitated (anti-Flag in Figure 2C), 2-4 h at 4°C; washed with TBST (500 mmol/L NaCl); Western blotting
TNRC6A (human) = TNRC6A (human) (UniProt Q8NDV7); assay: as above

Flag-tagged eIF4E2 (from UniProt O60573 1-245)
binding [1]: binds

eIF4E1 (expressed from a plasmid, Figure 2A) (from UniProt P06730 1-217)
binding (TNRC6B (human)): no binding | binding (TNRC6A (human)): no binding

eIF4E2 (expressed from a plasmid, Figure 2A) (from UniProt O60573 1-245)
binding (TNRC6B (human)): binds | binding (TNRC6A (human)): binds

Flag-tagged eIF4E1 (from UniProt P06730 1-217)
binding [1]: no binding
